Laboratory results as given in the supplement of paper PMC4967469.
IC50 is the fitted dose that halves viability relative to control wells, and lower means more sensitive; a limit (>, <) means that the fit lies beyond the doses tested. AUC, from the same fit, is the share of area under the viability curve across the 256-fold dose range: 1 means no effect, lower means more sensitive. For some of these results: An inferred top dose was calculated from the reported fits. For some of these results: An entry number marks a drug with two screens in the source, which often give different values.

Legend:
Experiment in all cases: Viability of human cancer cell lines after 72 h of drug (GDSC screen)
VNLG/124 = compound: CCCC(=O)OCc1ccc(OC(=O)/C=C(C)/C=C/C=C(C)/C=C/C2=C(C)CCCC2(C)C)cc1 [VNLG/124]; conditions: top dose 5.12 µM; top dose inferred
Procedure: (§1)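 Human cancer cell lines in 384-well plates, medium with 10% serum, drug for 72 h over a 256-fold dose range (nine 2-fold or five 4-fold steps up to the top dose). Adherent lines were fixed and stained with the nucleic acid dye Syto60, suspension lines read with resazurin; signal relative to control wells, capped at 0 and 100%. One two-parameter sigmoid per drug and line, fitted in a mixed model over all curves with the slope shared within a line.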

Elesclomol = compound: CN(NC(=O)CC(=O)NN(C)C(=S)c1ccccc1)C(=S)c1ccccc1 [Elesclomol]; conditions: top dose 0.2 µM; top dose inferred
Procedure: as §1

HG-5-88-01 = compound: COc1cc(N2CCC(C(N)=O)CC2)ccc1Nc1nc(N)c(Cl)c(Nc2ccccc2S(=O)(=O)C(C)C)n1 [HG-5-88-01]; conditions: top dose 10 µM; top dose inferred
Procedure: as §1

Bleomycin = compound: Cc1c(N)nc([C@H](CC(N)=O)NC[C@H](N)C(N)=O)nc1C(=O)N[C@H](C(=O)N[C@H](C)[C@@H](O)[C@H](C)C(=O)N[C@H](C(=O)NCCc1nc(-c2nc(C(=O)NCCC[S+](C)C)cs2)cs1)[C@@H](C)O)[C@@H](OC1OC(CO)C(O)C(O)C1OC1OC(CO)C(O)C(OC(N)=O)C1O)c1cnc[nH]1 [Bleomycin]
Procedure: as §1

Masitinib = compound: Cc1ccc(NC(=O)c2ccc(CN3CCN(C)CC3)cc2)cc1Nc1nc(-c2cccnc2)cs1 [Masitinib]; conditions: top dose 20 µM
Procedure: as §1

LAQ824 = compound: O=C(/C=C/c1ccc(CN(CCO)CCc2c[nH]c3ccccc23)cc1)NO [LAQ824]; conditions: top dose 1.024 µM; top dose inferred
Procedure: as §1

OSI-930 = compound: O=C(Nc1ccc(OC(F)(F)F)cc1)c1sccc1NCc1ccnc2ccccc12 [OSI-930]; conditions: top dose 10.24 µM
Procedure: as §1

BX-912 = compound: O=C(Nc1cccc(Nc2ncc(Br)c(NCCc3cnc[nH]3)n2)c1)N1CCCC1 [BX-912]; conditions: top dose 10.24 µM; top dose inferred
Procedure: as §1

NSC-87877 = compound: O=S(=O)(O)c1ccc2cc(N=Nc3cc(S(=O)(=O)O)c4cccnc4c3O)ccc2c1 [NSC-87877]; conditions: top dose 16 µM; top dose inferred
Procedure: as §1

Tamoxifen = compound: CC/C(=C(\c1ccccc1)c1ccc(OCCN(C)C)cc1)c1ccccc1 [Tamoxifen]; conditions: top dose 5 µM
Procedure: as §1

[1] = top dose 50 µM, screen: GDSC drug entry 1378, top dose inferred
[2] = top dose 64 µM, screen: GDSC drug entry 190

Row | Cell Line | AUC (VNLG/124) | IC50 (VNLG/124) [µM] | AUC (Elesclomol) | IC50 (Elesclomol) [µM] | AUC (HG-5-88-01) | IC50 (HG-5-88-01) [µM] | AUC (Bleomycin; [1]) | IC50 (Bleomycin; [1]) [µM] | AUC (Bleomycin; [2]) | IC50 (Bleomycin; [2]) [µM] | AUC (Masitinib) | IC50 (Masitinib) [µM] | AUC (LAQ824) | IC50 (LAQ824) [µM] | AUC (OSI-930) | IC50 (OSI-930) [µM] | AUC (BX-912) | IC50 (BX-912) [µM] | AUC (NSC-87877) | IC50 (NSC-87877) [µM] | AUC (Tamoxifen) | IC50 (Tamoxifen) [µM]
1 | SW1573 (lung adenocarcinoma, adherent) | 0.975 | > 5.12 | 0.498 | 0.0123 | 0.851 | > 10 | 0.487 | 2.85 | 0.134 | < 0.25 | 0.931 | > 20 | 0.654 | 0.199 | 0.966 | > 10.2 | 0.87 | > 10.2 | 0.965 | > 16 |  | 
2 | HuH-7 (liver, adherent) | 0.987 | > 5.12 | 0.576 | 0.0202 | 0.83 | 6.26 | 0.442 | 2.17 | 0.455 | 3.02 | 0.951 | > 20 | 0.732 | 0.292 | 0.985 | > 10.2 | 0.86 | 8.55 | 0.987 | > 16 |  | 
3 | NB69 (neuroblastoma, adherent) | 0.987 | > 5.12 | 0.186 | 0.00166 | 0.656 | 1.6 | 0.121 | 0.236 | 0.305 | 1.22 | 0.888 | 18.1 | 0.344 | 0.025 | 0.99 | > 10.2 | 0.714 | 2.37 | 0.989 | > 16 |  | 
4 | OVCAR-8 (ovary, adherent) | 0.972 | > 5.12 | 0.295 | 0.00356 | 0.943 | > 10 | 0.171 | 0.365 | 0.032 | < 0.25 | 0.883 | 17.5 | 0.292 | 0.0179 | 0.976 | > 10.2 | 0.94 | > 10.2 | 0.981 | > 16 |  | 
5 | A2058 (melanoma, adherent) | 0.985 | > 5.12 | 0.653 | 0.0316 | 0.949 | > 10 | 0.487 | 2.88 | 0.239 | 0.78 | 0.899 | > 20 | 0.52 | 0.0721 | 0.978 | > 10.2 | 0.811 | 4.74 | 0.99 | > 16 |  | 
6 | HCT-116 (large intestine, adherent) | 0.987 | > 5.12 | 0.695 | 0.0428 | 0.923 | > 10 |  |  |  |  | 0.757 | 6.58 |  |  | 0.736 | 2.9 | 0.769 | 3.67 | 0.969 | > 16 |  | 
7 | K-562 (chronic myeloid leukaemia, suspension) | 0.982 | > 5.12 |  |  | 0.986 | > 10 |  |  |  |  |  |  |  |  |  |  |  |  | 0.949 | > 16 |  | 
8 | SK-MEL-28 (melanoma, adherent) | 0.982 | > 5.12 |  |  | 0.962 | > 10 | 0.945 | > 50 | 0.97 | > 64 | 0.897 | > 20 | 0.742 | 0.31 | 0.983 | > 10.2 | 0.972 | > 10.2 | 0.965 | > 16 |  | 
9 | SW620 (large intestine, adherent) | 0.988 | > 5.12 | 0.539 | 0.0158 | 0.956 | > 10 | 0.779 | 18 | 0.512 | 4.31 | 0.885 | 17.4 |  |  | 0.916 | > 10.2 | 0.732 | 2.66 | 0.99 | > 16 |  | 
10 | OVCAR-3 (ovary, adherent) | 0.958 | > 5.12 |  |  | 0.936 | > 10 | 0.507 | 3.26 | 0.786 | 30.8 | 0.986 | > 20 | 0.407 | 0.0346 | 0.983 | > 10.2 | 0.979 | > 10.2 | 0.984 | > 16 |  | 
11 | AsPC-1 (pancreas, adherent) | 0.966 | > 5.12 | 0.652 | 0.0447 | 0.792 | 8.92 | 0.896 | > 50 | 0.824 | > 64 | 0.974 | > 20 | 0.513 | 0.0713 | 0.975 | > 10.2 | 0.969 | > 10.2 |  |  |  | 
12 | T-24 (bladder, adherent) | 0.977 | > 5.12 |  |  | 0.949 | > 10 | 0.141 | 0.254 | 0.27 | 0.916 | 0.892 | > 20 | 0.699 | 0.225 | 0.988 | > 10.2 | 0.943 | > 10.2 | 0.989 | > 16 |  | 
13 | NCI-H2452 (mesothelioma, adherent) | 0.981 | > 5.12 | 0.607 | 0.026 |  |  | 0.497 | 3.05 | 0.973 | > 64 | 0.984 | > 20 | 0.672 | 0.212 | 0.968 | > 10.2 | 0.984 | > 10.2 | 0.974 | > 16 | 0.958 | > 5
14 | Raji (Burkitt lymphoma, suspension) | 0.99 | > 5.12 | 0.887 | 0.198 |  |  | 0.639 | 7.38 | 0.402 | 2.2 | 0.885 | 19.4 | 0.509 | 0.0677 | 0.986 | > 10.2 | 0.99 | > 10.2 | 0.989 | > 16 | 0.988 | > 5
